About 9,900 (2.8%) of roughly 350,000 compounds were called active. Inconclusive means that the source gave no clear call. Such entries were picked first, then a sample of the others. Calls follow the shape of the dose curve; as a rule, active = well fitted activation curve with a large enough effect; inconclusive = small, poorly fitted or top-dose-only effect; inactive = no such curve, though single readings can be large or run the other way. Potencies of inconclusive entries are left out as doubtful fits.
Experiment: A quantitative high throughput screen for small molecules that induce DNA re-replication in MCF 10a normal breast cells. Also: nearly all actives have a fitted effect of over 50% in size. As to activity, positive = re-replication: % of control where 0% means no effect.
Conditions: MCF 10A DNA re-replication, Hoechst nuclear intensity, 48 h; activity, positive = re-replication: at 46.1 µM (top of the series)
In the case of `CC(Sc1nnc(-c2ccccc2)c(-c2ccccc2)n1)C(=O)NCC1CCCO1` (stereo unspecified), the Potency is reported as inconclusive [activator, single point]. In the case of `CS(=O)(=O)N(CC(=O)Nc1ccccc1Sc1ccccc1)C1CCCCC1`, the Potency is reported as inconclusive [activator, partial curve, poor fit]. For `CC1=C(C(N)=O)C(c2cccc(OCc3ccccc3)c2)n2nnnc2N1` (stereo unspecified), the Potency was inconclusive [activator, partial curve, poor fit]. With `O=S(=O)(c1ccc2c(c1)C(=NO)c1cc(S(=O)(=O)N3CCCCC3)ccc1-2)N1CCCCC1` the Potency was active: 2.06 µM. For `COc1ccc(N(C)C(=O)c2ccc3c(Cl)c4c(nc3c2)CCCC4)c(OC)c1`, the Potency was inconclusive [activator, single point]. With `N#Cc1c(C(F)(F)F)cc(-c2cccs2)nc1SCC(=O)O` the Potency was “inactive”. In the case of `O=C1Nc2ccc(Br)cc2/C1=C/C(=O)c1ccc2c(c1)OCO2`, the Potency is reported as active: 3.66 µM. In the case of `CCOC(=O)c1ccc(N/C=C/C(=O)c2ccco2)cc1`, the Potency is reported as inconclusive [activator, single point]. With `Cc1cc(C)cc(NC(=O)[C@H](Cc2c[nH]c3ccccc23)NC(=O)[C@@H]2Cc3ccccc3CN2)c1` the Potency was active: 20.6 µM. With `Cc1ccc(C(=O)Nc2cccc(C(=O)NCc3ccccc3)c2)cc1` the Potency was inconclusive [activator, partial curve]. In the case of `O=C1C(=O)N(c2ccccn2)C(c2cccc(F)c2)/C1=C(/O)c1ccccc1` (stereo unspecified), the Potency is reported as “inactive”. With `CCOc1ccc(C(C)NC(=O)c2ccccc2F)cc1` (stereo unspecified) the Potency was “inactive”. With `O=C(NCc1ccccc1)N1CCN(c2ccc(Cl)c(Cl)c2)CC1` the Potency was inconclusive [activator, full curve]. In the case of `C=CCC(Nc1ccccc1)C12C=CC(O1)C(C(=O)OC)=C2C(=O)OC` (stereo unspecified), the Potency is reported as active: 12.6 µM. With `O=C(Nc1cccc(-c2nc3ccccc3s2)c1)c1cc(=O)c2ccccc2o1` the Potency was inconclusive [activator, single point]. With `CCOc1ccc(S(=O)(=O)NCCC(=O)NCCOc2ccccc2)cc1` the Potency was inconclusive [activator, single point]. With `COc1ccc(C2/C=C\CN(S(=O)(=O)c3ccc(C)cc3)[C@H](Cc3ccccc3)C(=O)N2Cc2ccc(F)cc2)cc1` (stereo partly specified) the Potency was inconclusive [activator, full curve]. With `CCN1C(=O)N/C(=C/c2ccc(C)o2)C1=O` the Potency was inconclusive [activator, single point]. In the case of `CC1CCC(C(C)C)C(OC(=O)CSc2nnc(N)s2)C1` (stereo unspecified), the Potency is reported as inconclusive [activator, partial curve]. For `COC(C[C@@H]1O[C@@H]1[C@H](O)COCc1ccccc1)OC`, the Potency was inconclusive [activator, full curve, poor fit]. With `Cc1ccc(C(C(=O)NC2CCCC2)N(Cc2ccc(F)cc2)C(=O)c2snc(C(N)=O)c2N)o1` (stereo unspecified) the Potency was inconclusive [activator, single point]. For `O=C(Cn1cnc([N+](=O)[O-])c1)Nc1cc(Oc2ccc(Cl)cc2Cl)cc([N+](=O)[O-])c1`, the Potency was inconclusive [activator, single point]. For `Cc1nc(NC(=O)c2ccco2)sc1-c1csc(Nc2ccc(Cl)cc2Cl)n1`, the Potency was active: 16.4 µM. For `O=c1c2c(nc3cc(-c4ccc(Br)cc4)[nH]n13)CCCC2`, the Potency was inconclusive [activator, single point]. For `COCCN1CCN(C(=O)C2CCC(=O)N(Cc3ccccc3OC)C2)CC1` (stereo unspecified), the Potency was “inactive”. With `CCCCn1c(N)c(N(CCC(C)C)C(=O)c2ccc(COc3ccccc3)o2)c(=O)[nH]c1=O` the Potency was inconclusive [activator, partial curve, poor fit]. For `S=c1[nH]c(-c2ccccc2)cn1/N=C/c1cccc2ccccc12`, the Potency was inconclusive [activator, single point]. In the case of `COc1cc2c(cc1OC)CN(C(=O)c1cccc(S(=O)(=O)N3CCc4ccccc43)c1)CC2`, the Potency is reported as inconclusive [activator, full curve, poor fit]. With `Nc1c(N(CCC2=CCCCC2)C(=O)COc2ccc(F)cc2Cl)c(=O)[nH]c(=O)n1Cc1ccccc1` the Potency was active: 11.6 µM. For `CCOCc1c(C(=O)Nc2cc(OCC)c(N3CCOCC3)cc2OCC)oc2ccccc12`, the activity, positive = re-replication was inactive: -1.8% [at 9.22 µM]. In the case of `Cc1cc(C)n(C(C[N+](=O)[O-])c2ccc(Cl)cc2)n1` (stereo unspecified), the Potency is reported as active: 14.6 µM. With `O=C(Nc1ccc(F)cc1)N1CCN(c2nc3ccccc3s2)CC1` the Potency was “inactive”. In the case of `CC1=NN(c2cccc(C(=O)O)c2)C(=O)/C1=C\C=C/c1ccccc1`, the Potency is reported as inconclusive [activator, single point]. For `CCOC(=O)c1ccc(-n2c(=S)sc3c(=O)[nH]c(C)nc32)cc1`, the Potency was “inactive”. For `O=C1NC[C@H](c2ccccc2)N(CCc2cccc3ccccc23)C1=O`, the Potency was “inactive”. For `Cc1ccc(Nc2cc(=O)[nH]c(=O)[nH]2)cc1Cl`, the Potency was inconclusive [activator, partial curve, poor fit]. In the case of `O=C(COC(=O)/C=C/c1ccc(Cl)cc1)NC(=O)NCc1ccccc1`, the Potency is reported as inconclusive [activator, single point]. In the case of `Cc1cc(N2CCOCC2)nc2ccc(NC(=S)NCc3ccc4c(c3)OCO4)cc12`, the Potency is reported as inconclusive [activator, full curve, poor fit]. With `O=C(Nc1ccc(N2CCCCC2)cc1)c1ccc2c(c1)OCCO2` the Potency was “inactive”. In the case of `Cc1ccc(S(=O)(=O)c2c(C)nn(C(C)(C)C)c2OC(=O)c2ccc(Br)o2)cc1`, the Potency is reported as inconclusive [activator, single point]. With `COC(=O)c1ccc(C23CC4(C2)[C@H](CN(CC2CCCCC2)[C@@H]4c2ccccc2)C3c2ccccc2)cc1` (stereo partly specified) the Potency was inconclusive [activator, partial curve, poor fit]. In the case of `CC(C)C(=O)N1CCN(c2ccc([N+](=O)[O-])c(NC(C)c3ccccc3)c2)CC1` (stereo unspecified), the Potency is reported as inconclusive [activator, partial curve, poor fit]. With `CC1=Nc2ccc(C)cc2/C1=C/c1c(N)n2c(S(=O)(=O)C(C)C)nsc2nc1=O` the Potency was inconclusive [activator, single point]. In the case of `CC1CCCCN1C(=O)c1cc(-c2ccc3c(c2)OCO3)on1` (stereo unspecified), the Potency is reported as “inactive”. For `O=C(NCCCN1CCN(c2ccccc2)CC1)C1CCCN(c2ncnc3c2nc2n3CCCCC2)C1` (stereo unspecified), the Potency was inconclusive [activator, partial curve, poor fit]. With `Nc1ncnc2c1ncn2[C@@H]1O[C@H](CNC(=O)[C@@H]2CCN2)[C@@H](O)[C@H]1O` the Potency was inconclusive [activator, full curve, poor fit]. For `CCN1CCN(c2nc(N)c([N+](=O)[O-])c(Nc3cccc(C)c3)n2)CC1`, the Potency was “inactive”. With `C=CCOc1ccc(C2=NOC(C(=O)Nc3ccc4c(c3)OCCO4)C2)cc1OC` (stereo unspecified) the Potency was inconclusive [activator, partial curve, poor fit]. In the case of `CC(=O)Nc1cccc(NC(=S)Nc2cccc3ccccc23)c1`, the Potency is reported as “inactive”. In the case of `COCCNC(=O)COc1ccc(Oc2ccccc2)cc1`, the Potency is reported as “inactive”. With `CCN1CCN(c2ccc(S(=O)(=O)N(CC)CC)cc2[N+](=O)[O-])CC1` the Potency was inconclusive [activator, single point]. In the case of `COc1cc(/C=C/[N+](=O)[O-])ccc1OC(=O)c1cc2ccccc2oc1=O`, the Potency is reported as inconclusive [activator, single point]. For `CC(C)n1ncc2c(C(=O)N3CCN(Cc4ccc(Br)s4)CC3)cc(C3CC3)nc21`, the Potency was inconclusive [activator, single point]. For `COC(=O)CSc1c(-c2ccccc2)c2cc(Cl)ccc2[nH]c1=O`, the Potency was “inactive”. With `COCCN(CCOC)S(=O)(=O)c1ccc(C(=O)Nc2nc(-c3ccccc3)c(C(=O)c3ccccc3)s2)cc1` the Potency was inconclusive [activator, full curve]. With `Cc1oc(-c2cccs2)nc1CN1CCN(Cc2ccc(F)c(F)c2)C(CCO)C1` (stereo unspecified) the Potency was inconclusive [activator, single point]. With `CCN(Cc1ccc(O)cc1)CC1CCCN(CCc2cccc(F)c2)C1` (stereo unspecified) the Potency was inconclusive [activator, partial curve, poor fit]. With `Cc1ccc(N2C(=O)CC3(CCCC3)CC2=O)cc1` the Potency was inconclusive [activator, partial curve, poor fit]. In the case of `CCC(C)NC(=O)CN(c1cc(Cl)cc(Cl)c1)S(C)(=O)=O` (stereo unspecified), the Potency is reported as “inactive”. For `CCCCN=C1NN=C(c2ccc(C)c(C)c2)CS1`, the Potency was “inactive”. In the case of `CCN(CC)S(=O)(=O)c1cccc(C(=O)NNC(=O)C2=NN(c3ccccc3)C(=O)CC2)c1`, the Potency is reported as “inactive”. With `COc1cc2c(cc1NC(=O)c1cc(-c3ccncc3)nc3ccc(C)cc13)oc1ccccc12` the Potency was inconclusive [activator, partial curve, poor fit]. With `CCOc1ccccc1NC(=O)c1ccccc1-c1nc(-c2ccccc2)no1` the Potency was “inactive”. In the case of `COc1cc2c(cc1OC)CN(c1ccc([N+](=O)[O-])cc1Cl)CC2`, the Potency is reported as inconclusive [activator, full curve, poor fit]. In the case of `N#Cc1c2n(c3c(=O)[nH]cnc13)CCCC2`, the Potency is reported as “inactive”. For `CCSc1nc2c(sc3ccccc32)c(=O)n1C(C)C`, the Potency was inconclusive [activator, single point].

Reference: PubChem BioAssay AID624296 (National Center for Advancing Translational Sciences (NCATS), 2012)
Potency is read from the fitted curve at half-maximal effect; tags tell the direction and shape of the fitted curve.
